# This is one part of the list.
# B1: MGL2 (Mus musculus), Q8JZN1 (protein)
# chain: MTMRYENFQNLEREEKNQEMRNGDKKGGMESPKFALIPSQSFLWRILSWTHLLLFSLGLSLLLLVVISVIGSQNSQLRRDLGTLRAILDNTTSKIKAEFQSLDSRADNFEKGISSLKVDVEDHRQELQAGRDLSQKVTSLESTLEKREQALKTDLSDLTDHVQQLETDLKALTCQLANLKNNGSEVACCPLHWTEHEGSCYWFSESEKSWPEADKYCRLENSHLVVVNSLEEQNFLQNRLANVLSWMGLTDQNGPWRWVDGTDFDKGFKNWRPLQPDNWHGHMLGGGEDCAHFSYDGRWNDDVCQRHYHWICETELGKASSAHSPQLIASVP
# What was measured:
# Assay in all cases: glycan array binding signal (z-score within array); higher = stronger binding
# Details in all cases: glycan notation: IUPAC condensed, linker removed
# [1] = biological target: Gal(b1-4)GlcNAc(b1-2)Man(a1-3)[Gal(b1-4)GlcNAc(b1-2)Man(a1-6)]Man(b1-4)GlcNAc(b1-4)GlcNAc
# In short: (§1)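 Arrays were curated from the Consortium for Functional Glycomics database, 3228 in total, and kept only where the protein sequence was available. Binding is expressed as a within-array Z-score. This score was averaged across arrays of the same protein sequence at different concentrations or buffers and across linkers, and negative values can be read as non-binding.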
# [2] = biological target: Gal(b1-4)GlcNAc(b1-2)Man(a1-3)[Gal(b1-4)GlcNAc(b1-2)Man(a1-6)]Man(b1-4)GlcNAc(b1-4)[Fuc(a1-6)]GlcNAc
# In short: as §1
# [3] = biological target: Gal(b1-4)GlcNAc(b1-2)Man(a1-3)[Gal(b1-4)GlcNAc(b1-2)Man(a1-6)][Gal(b1-4)GlcNAc(b1-4)]Man(b1-4)GlcNAc(b1-4)[Fuc(a1-6)]GlcNAc
# In short: as §1
# [4] = biological target: Gal(b1-4)GlcNAc(b1-2)Man(a1-3)[Gal(b1-4)GlcNAc(b1-2)Man(a1-6)][GlcNAc(b1-4)]Man(b1-4)GlcNAc(b1-4)[Fuc(a1-6)]GlcNAc
# In short: as §1
# [5] = biological target: Gal(b1-4)GlcNAc(b1-2)Man(a1-3)[GlcNAc(b1-2)Man(a1-6)]Man(b1-4)GlcNAc(b1-4)GlcNAc
# In short: as §1
# [6] = biological target: Gal(b1-4)GlcNAc(b1-2)Man(a1-3)[GlcNAc(b1-4)][Gal(b1-4)GlcNAc(b1-2)Man(a1-6)]Man(b1-4)GlcNAc(b1-4)GlcNAc
# In short: as §1
# [7] = biological target: Gal(b1-4)GlcNAc(b1-2)Man(a1-3)[Man(a1-6)]Man(b1-4)GlcNAc(b1-4)GlcNAc
# In short: as §1
# [8] = biological target: Gal(b1-4)GlcNAc(b1-2)Man(a1-6)Man(b1-4)GlcNAc(b1-4)GlcNAc
# In short: as §1
# [9] = biological target: Gal(b1-4)GlcNAc(b1-2)Man(a1-6)[GlcNAc(b1-2)Man(a1-3)]Man(b1-4)GlcNAc(b1-4)GlcNAc
# In short: as §1
# [10] = biological target: Gal(b1-4)GlcNAc(b1-2)Man(a1-6)[Man(a1-3)]Man(b1-4)GlcNAc(b1-4)GlcNAc
# In short: as §1
# [11] = biological target: Gal(b1-4)GlcNAc(b1-2)[Gal(b1-4)GlcNAc(b1-4)]Man(a1-3)[Gal(b1-4)GlcNAc(b1-2)Man(a1-6)]Man(b1-4)GlcNAc(b1-4)GlcNAc
# In short: as §1
# [12] = biological target: Gal(b1-4)GlcNAc(b1-2)[Gal(b1-4)GlcNAc(b1-4)]Man(a1-3)[Gal(b1-4)GlcNAc(b1-2)[Gal(b1-4)GlcNAc(b1-6)]Man(a1-6)]Man(b1-4)GlcNAc(b1-4)GlcNAc
# In short: as §1
# [13] = biological target: Gal(b1-4)GlcNAc(b1-2)[Gal(b1-4)GlcNAc(b1-4)]Man(a1-3)[GlcNAc(b1-4)][Gal(b1-4)GlcNAc(b1-2)Man(a1-6)]Man(b1-4)GlcNAc(b1-4)GlcNAc
# In short: as §1
# [14] = biological target: Gal(b1-4)GlcNAc(b1-2)[Gal(b1-4)GlcNAc(b1-4)]Man(a1-3)[GlcNAc(b1-4)][Gal(b1-4)GlcNAc(b1-2)[Gal(b1-4)GlcNAc(b1-6)]Man(a1-6)]Man(b1-4)GlcNAc(b1-4)GlcNAc
# In short: as §1
# [15] = biological target: Gal(b1-4)GlcNAc(b1-2)[Gal(b1-4)GlcNAc(b1-6)]Man(a1-6)[Gal(b1-4)GlcNAc(b1-2)Man(a1-3)]Man(b1-4)GlcNAc(b1-4)GlcNAc
# In short: as §1
# [16] = biological target: Gal(b1-4)GlcNAc(b1-2)[Gal(b1-4)GlcNAc(b1-6)]Man(a1-6)[Gal(b1-4)GlcNAc(b1-2)Man(a1-3)]Man(b1-4)GlcNAc(b1-4)[Fuc(a1-6)]GlcNAc
# In short: as §1
# [17] = biological target: Gal(b1-4)GlcNAc(b1-2)[Gal(b1-4)GlcNAc(b1-6)]Man(a1-6)[GlcNAc(b1-4)][Gal(b1-4)GlcNAc(b1-2)Man(a1-3)]Man(b1-4)GlcNAc(b1-4)GlcNAc
# In short: as §1
# [18] = biological target: Gal(b1-4)GlcNAc(b1-2)[Gal(b1-4)GlcNAc(b1-6)]Man(a1-6)[GlcNAc(b1-4)][Gal(b1-4)GlcNAc(b1-2)[Gal(b1-4)GlcNAc(b1-4)]Man(a1-3)]Man(b1-4)GlcNAc(b1-4)[Fuc(a1-6)]GlcNAc
# In short: as §1
# [19] = biological target: Gal(b1-4)GlcNAc(b1-3)Gal(b1-3)GalNAc
# In short: as §1
binder,measurement,setting,value
B1,glycan array binding signal (z-score),[1],-0.293
same,glycan array binding signal (z-score),[2],-0.137
same,glycan array binding signal (z-score),[3],-0.213
same,glycan array binding signal (z-score),[4],-0.247
same,glycan array binding signal (z-score),[5],-0.213
same,glycan array binding signal (z-score),[6],-0.267
same,glycan array binding signal (z-score),[7],0.037
same,glycan array binding signal (z-score),[8],-0.174
same,glycan array binding signal (z-score),[9],-0.15
same,glycan array binding signal (z-score),[10],-0.255
same,glycan array binding signal (z-score),[11],-0.23
same,glycan array binding signal (z-score),[12],-0.247
same,glycan array binding signal (z-score),[13],-0.057
same,glycan array binding signal (z-score),[14],0.034
same,glycan array binding signal (z-score),[15],0.013
same,glycan array binding signal (z-score),[16],-0.193
same,glycan array binding signal (z-score),[17],-0.221
same,glycan array binding signal (z-score),[18],-0.22
same,glycan array binding signal (z-score),[19],-0.14

# Source: the supplement of paper PMC8728848
